Measured values from the supplement of paper PMC11417369.
The list shows a part of the results.

System: PfAP2-HC AP2 domain (GST-tagged)
Assay: gcPBM binding intensity (ln(normalized median fluorescence intensity)); higher = stronger DNA binding
Procedure, shortened: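 Binding intensity values are the highest Masliner-normalised natural-log median intensity among replicate spots of either probe orientation. The binding step lasted 1 h in 1× PBS with 1% milk, 0.2 mg/ml BSA, 0.5% salmon testes DNA and 0.03% Triton X-100, using GST-tagged P. falciparum DNA-binding domains expressed in E. coli on an Agilent 4 × 180k array of primer-extended double-stranded 36-bp intergenic genomic probes plus negative controls. Alexa488 anti-GST antibody and a 488 nm scan detected bound protein.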

Going from “GCCCCCAAATTATGTGTGCACTTTATATTCCTGAGA [GTGCAC_site9474]” to “TGGCATATATATAAATGTACTTTCTTTCTATCTGTT [XGTACX_site8483]”, the “gcPBM binding intensity (ln)” value falls from 9.85 to 9.75.

First: ATTGTGTGAACAAAATGTACATTTTCTCTACATTAA [XGTACX_site1333]
Second: AGGTCATACATAAAATGTACATATATATAAATATAT [XGTACX_site7147]
The “gcPBM binding intensity (ln)” value of the first is lower: 9.69 for the first, 9.72 for the second.

Compared with “TGAACACCCAAATACACACACTCAAAAAAAAAAAAG [CACACA_site5467]”, “ACAAGAATACACCACGCACACACACTAGAGAAAAAA [CACACA_site9276]” is higher in “gcPBM binding intensity (ln)” value: 9.93 for the first, 11.6 for the second.

Compared with “ATAAAAATAAAAGACGCATGTTCTTAAAATAAGAAC [TGCATGCA_site189]”, “ATATATATATATAATGCACACATTATGAATTATGTA [CACACA_site3384]” is higher in “gcPBM binding intensity (ln)” value: 9.66 for the first, 9.73 for the second.

Going from “AAACAAAATGGTAACACACACATATATATATATATA [CACACA_site1939]” to “GTGTGATCTTTTGAAAGTACATTTTTTTTTTTTTTT [XGTACX_site6311]”, the “gcPBM binding intensity (ln)” value falls from 10.2 to 9.48.

First: CTATCATATTTATGCACACAAAAATAATTAATTCGT [CACACA_site2614]
Second: ACCTGTTCATATGATCGTACACGTCAGTTTATATGA [XGTACX_site3869]
The “gcPBM binding intensity (ln)” value of the first is lower: 9.82 for the first, 9.96 for the second.

Compared with “TATTTTGAGAATAAATGTACGAATTTTATATTTAAA [XGTACX_site1336]”, “ATTCAAATATTAAAAAGTACAAAAAAAAAACAAAAA [XGTACX_site1174]” is higher in “gcPBM binding intensity (ln)” value: 9.25 for the first, 9.53 for the second.

First: ATATAATTATTGATATGTACATATTTGTTCTAGTTT [XGTACX_site3012]
Second: ACAACACTATATTACACATGCATTAAGAGAGTGAAC [TGCATGCA_site124]
The “gcPBM binding intensity (ln)” value of the first is lower: 9.79 for the first, 9.84 for the second.

Going from “ACATTAAAATATGATTGTACATTTTATTATATTATA [XGTACX_site912]” to “ATAATTATTTTAGAAACACACAAATTAGAAAAAACA [CACACA_site3636]”, the “gcPBM binding intensity (ln)” value rises from 9.6 to 9.76.

First: TAAAATAAAAATTAAAGTACATATGTATATATATAT [XGTACX_site3984]
Second: GAGTATTCAAGTATTAGTACATATTATATAATAAAT [XGTACX_site7630]
The “gcPBM binding intensity (ln)” value of the first is higher: 9.81 for the first, 9.65 for the second.

First: AATCCTTACGGACACACACACACGAATAAATAAAAA [CACACA_site4422]
Second: TACAAAATGGGGAACACACACATATATAAATAAATA [CACACA_site7751]
The “gcPBM binding intensity (ln)” value of the first is lower: 11 for the first, 11.1 for the second.

Compared with “TTTTTTTCTAATTATGCACACATATCAAAATATTCA [CACACA_site8886]”, “ATATTTATTATATAATGTACAAAAAAAAAAAAAAAA [XGTACX_site629]” is lower in “gcPBM binding intensity (ln)” value: 9.74 for the first, 9.13 for the second.

“AAATATAAAAGTATATGTACATATATATATATATAT [XGTACX_site7446]” and “AATAAATAGATATATACACACATATATCTATAATAT [CACACA_site6557]” are the same in “gcPBM binding intensity (ln)” value: 9.88 for the first, 9.88 for the second.

Compared with “CATATTCCCCCCCACACACACACACCCATACATACC [CACACA_site2303]”, “CGTGTGTCCCCCTTAATCATCCAATCGTTCATTTTG [CACACA_negctrl_site1008]” is lower in “gcPBM binding intensity (ln)” value: 10.6 for the first, 9.85 for the second.

Compared with “TATATAATGGTAAAAACACACAAATATGAAGATGTT [CACACA_site722]”, “AGAGGATCATAGTTATGTACACATATTTAACATAAA [XGTACX_site7232]” is lower in “gcPBM binding intensity (ln)” value: 9.83 for the first, 9.65 for the second.

First: TCTTCATTTTTATGTGCATGTAAAATTTTTTTTTTT [TGCATGCA_site963]
Second: GACAATAAAAAGAAAAGTACATATATAAATTAACCA [XGTACX_site7858]
The “gcPBM binding intensity (ln)” value of the first is lower: 9.63 for the first, 9.65 for the second.

Compared with “TTTTTATAAAAATTATTAAAAAAATTATTTATAGCT [CACACA_negctrl_site265]”, “AAATATATTATTATCTTATCAATTAAAAGAATAAAC [CACACA_negctrl_site779]” is higher in “gcPBM binding intensity (ln)” value: 9.22 for the first, 9.54 for the second.

Going from “TAGCGCATAAAAAAAAAAAAATATATACTAATAAAT [GTGCAC_negctrl_site276]” to “TTTTTTTTCAATCTCTATATATTAAGGTTTATATTT [XGTACX_negctrl_site397]”, the “gcPBM binding intensity (ln)” value rises from 9.47 to 9.59.

Compared with “TTACTTAAATATAAGTGTCCTCAAAAAAAAAAAAAA [XGTACX_site460]”, “AATATAAGTTTATTAGTGCACAGATAAATATATATT [GTGCAC_site9784]” is higher in “gcPBM binding intensity (ln)” value: 9.11 for the first, 9.84 for the second.

Going from “ATTTTTTATATTAATTGTACATTGTATATATATATA [XGTACX_site8702]” to “ATGTATGTTTTTTTTTTATTGTTCAAAAAGTTGAAG [CACACA_negctrl_site1276]”, the “gcPBM binding intensity (ln)” value falls from 9.75 to 9.46.

Going from “TGAGTTACATACTAATGTACACAACAAAAAAAAAAA [XGTACX_site2390]” to “TTTTTTTGAACATATACACACTCTAAACTTATACAT [CACACA_site3917]”, the “gcPBM binding intensity (ln)” value rises from 9.59 to 9.78.

Compared with “AAAGGTTTATATGATACACACATAAGTGATCAGGTT [CACACA_site190]”, “AAAAACTAATCTTTAACATGCAACCGTTTATACATA [TGCATGCA_site363]” is lower in “gcPBM binding intensity (ln)” value: 9.77 for the first, 9.54 for the second.

Compared with “AAAAATTATGGACACACACACATATATATATATATT [CACACA_site4717]”, “GGTATACGCAAGTATACACACATATATATATATATA [CACACA_site3240]” is lower in “gcPBM binding intensity (ln)” value: 10.3 for the first, 9.68 for the second.

Going from “AATAAAATAAAATACACACATACATACATACAAATG [CACACA_site2438]” to “TAATTTATGACACGCGCACACATATATATATAGTAA [CACACA_site4249]”, the “gcPBM binding intensity (ln)” value falls from 11.2 to 9.92.

First: ACCCATAAAAAGGATACACACACACCCACCCATATA [CACACA_site8205]
Second: ATATATATATTTGTATGTACATATATATATTCGTAT [XGTACX_site1640]
The “gcPBM binding intensity (ln)” value of the first is higher: 10.6 for the first, 9.72 for the second.

First: TTTCCTTATTAAAACACACAAATACATTATTTAATC [CACACA_site7080]
Second: ACTGTAAAAGGATTTACACACATATTTACATTTACA [CACACA_site519]
The “gcPBM binding intensity (ln)” value of the first is lower: 9.7 for the first, 9.91 for the second.

First: TACCAATGCATAACGGTGCAAAAAAATAAGGAATAA
Second: ATGCATATAACTACGTGTACAAATATACACAAATAC [XGTACX_site8811]
The “gcPBM binding intensity (ln)” value of the first is lower: 9.61 for the first, 9.79 for the second.

Going from “GTACGATAAAAAATTGGACAAAAAAAAAAAAAAAAT [XGTACX_negctrl_site158]” to “ATTTCATAAATTAAACGTACATAATACACACACATG [XGTACX_site4155]”, the “gcPBM binding intensity (ln)” value rises from 9.59 to 11.

Going from “TAAAACAACAAAGAAAATGAAAAAGTAAAAACATAT [CACACA_negctrl_site1049]” to “TTTTGCAATAATGTTGCACACTAAATAGTCATCTAT [CACACA_site4304]”, the “gcPBM binding intensity (ln)” value falls from 9.77 to 9.73.

First: TTTTGTTATTTTTTAGTGCATATAAAGGTTGTTAAG
Second: ACATTTTTTTCATATCGTACATATTATAATATTTTC [XGTACX_site6524]
The “gcPBM binding intensity (ln)” value of the first is lower: 9.39 for the first, 9.84 for the second.

Going from “AAAAAAAAAAAAGGAGGTACACAATTTTATATATGC [XGTACX_site5296]” to “ACAAGTCAGGCAAAAACATGCATTATTTGAACATTA [TGCATGCA_site864]”, the “gcPBM binding intensity (ln)” value rises from 9.66 to 9.68.

Going from “GAGCATTACCCATATACACACATATATATAAACCTA [CACACA_site2737]” to “ATTATATTAAAATACACACCCAAATATTAAAAAGAT [CACACA_site5613]”, the “gcPBM binding intensity (ln)” value rises from 9.98 to 10.1.

Compared with “TGATAAAATGGGGAAATTCATTATATCATATCTTGG [CACACA_negctrl_site789]”, “TTGGATAAAAAATATGTACACACATATAGATATCTA [CACACA_site8862]” is higher in “gcPBM binding intensity (ln)” value: 9.5 for the first, 9.7 for the second.

Compared with “TTTCTTCTTCTATTGTGTACGTAAAAAAAAAAAAAA [XGTACX_site772]”, “TTTGAAATATTAAATGCATGTTAAAACATAAAAATG [TGCATGCA_site680]” is higher in “gcPBM binding intensity (ln)” value: 9.09 for the first, 9.49 for the second.

Compared with “GGTAATTTCCTTTTTTGTACTCATAGAAGGATAATA [XGTACX_site89]”, “TCAGATATATATATATAAATATATATTTTGAAATGT [CACACA_negctrl_site686]” is higher in “gcPBM binding intensity (ln)” value: 9.35 for the first, 9.7 for the second.

Going from “TAGTATCCAAGAAAAAGTACTTATTTTAATTTTTTA [XGTACX_site6243]” to “TCATTTAAGTAGACGCGTACGGAAATTACGAATCCT [XGTACX_site144]”, the “gcPBM binding intensity (ln)” value rises from 9.42 to 9.65.

Going from “AATATTTATAAAGACACACAAACAAAAAGGATAAAA [CACACA_site2985]” to “ATTATTATATTTATATGTACATAGAAAAAATTAAAT [XGTACX_site2058]”, the “gcPBM binding intensity (ln)” value falls from 10.3 to 9.57.

First: AAAAATAAAGGATATACACACTAATTATATATATAT [CACACA_site5550]
Second: AAGACTGCACTTTAAGCACACAAATATATTTTTTTT [CACACA_site8337]
The “gcPBM binding intensity (ln)” value of the first is higher: 9.91 for the first, 9.79 for the second.

First: AAGAAAAAAATTTAATTAAATGAAATTTTTGAATTA [TGCATGCA_negctrl_site25]
Second: TTTTTTTTTTGTTGAGTGCAATTATTTGTAAGAAAA
The “gcPBM binding intensity (ln)” value of the first is higher: 9.45 for the first, 9.18 for the second.

First: AAATTAATATATAAAAGTACCCATATATTTAATATA [XGTACX_site3551]
Second: AGTTTGTTTTTTTTTTTTTTTTCCTGTCACAAACAA [CACACA_negctrl_site1093]
The “gcPBM binding intensity (ln)” value of the first is lower: 9.36 for the first, 9.57 for the second.

Compared with TCTCCACCTCTCTTGGTGCGTTATACCCTCGAGGCT, “TATAACAAAATATTCACACATATAAGTAAATAAAGG [CACACA_site5777]” is higher in “gcPBM binding intensity (ln)” value: 9.71 for the first, 9.84 for the second.

Going from “TCAAAGCACCCATACACACACATATATATATATATA [CACACA_site4317]” to “GTCATATATATATGTACACACATATATATATTTATA [CACACA_site1459]”, the “gcPBM binding intensity (ln)” value falls from 10.5 to 9.81.

Going from GTACGTTACATAAATGTGCACATATTATATGCGAAG to “TTCTGACTTGTTATAATTTGTATATCCGAAAAAATT [TGCATGCA_negctrl_site456]”, the “gcPBM binding intensity (ln)” value falls from 9.87 to 9.51.

Compared with “TACATATTTTGTATATATTATTTATTTTATTAGTTT [XGTACX_negctrl_site85]”, “ACTATTATTAAAAATTGTACTTTCTATAAATTTTTT [XGTACX_site7825]” is higher in “gcPBM binding intensity (ln)” value: 9.51 for the first, 9.72 for the second.

For “ATAACATCAGTATTATGTACATATGTAGGTAAATAA [XGTACX_site7066]”, the “gcPBM binding intensity (ln)” value was 9.99.
